# In the supplement of paper PMC8728848:
# The list shows a part of the results.
# B1: CLEC5A (Homo sapiens), Q9NY25 (protein)
# chain: MNWHMIISGLIVVVLKVVGMTLFLLYFPQIFNKSNDGFTTTRSYGTVSQIFGSSSPSPNGFITTRSYGTVCPKDWEFYQARCFFLSTSESSWNESRDFCKGKGSTLAIVNTPEKLKFLQDITDAEKYFIGLIYHREEKRWRWINNSVFNGNVTNQNQNFNCATIGLTKTFDAASCDISYRRICEKNAK
# How the values were obtained:
# Test in all cases: glycan array binding signal (z-score within array); higher = stronger binding
# Settings in all cases: glycan notation: IUPAC condensed, linker removed
# [1] = target: Gal(b1-3)GlcNAc(b1-6)[Gal(b1-3)]GalNAc
# How it was run: (§1)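 From the Consortium for Functional Glycomics database, 3228 arrays were curated, keeping only those whose protein sequence was available. Binding is given as a within-array Z-score averaged across arrays sharing a protein sequence and across linkers. Negative Z-scores can be read as non-binding.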
# Gal(b1-3)GlcNAc6S = target: Gal(b1-3)GlcNAc6S
# How it was run: as §1
# [2] = target: Gal(b1-3)[Fuc(a1-4)]GlcNAc
# How it was run: as §1
# [3] = target: Gal(b1-3)[Fuc(a1-4)]GlcNAc(b1-2)Man
# How it was run: as §1
# [4] = target: Gal(b1-3)[Fuc(a1-4)]GlcNAc(b1-2)Man(a1-3)[Gal(b1-3)[Fuc(a1-4)]GlcNAc(b1-2)Man(a1-6)]Man(b1-4)GlcNAc(b1-4)GlcNAc
# How it was run: as §1
# [5] = target: Gal(b1-3)[Fuc(a1-4)]GlcNAc(b1-2)Man(a1-3)[Gal(b1-3)[Fuc(a1-4)]GlcNAc(b1-2)Man(a1-6)]Man(b1-4)GlcNAc(b1-4)[Fuc(a1-6)]GlcNAc
# How it was run: as §1
# [6] = target: Gal(b1-3)[Fuc(a1-4)]GlcNAc(b1-3)Gal(b1-3)[Fuc(a1-4)]GlcNAc
# How it was run: as §1
# [7] = target: Gal(b1-3)[Fuc(a1-4)]GlcNAc(b1-3)Gal(b1-4)Glc
# How it was run: as §1
# [8] = target: Gal(b1-3)[Fuc(a1-4)]GlcNAc(b1-3)Gal(b1-4)GlcNAc
# How it was run: as §1
# [9] = target: Gal(b1-3)[Fuc(a1-4)]GlcNAc(b1-3)Gal(b1-4)[Fuc(a1-3)]Glc
# How it was run: as §1
# [10] = target: Gal(b1-3)[Fuc(a1-4)]GlcNAc(b1-3)Gal(b1-4)[Fuc(a1-3)]GlcNAc
# How it was run: as §1
# [11] = target: Gal(b1-3)[Fuc(a1-4)]GlcNAc(b1-3)Gal(b1-4)[Fuc(a1-3)]GlcNAc(b1-3)Gal(b1-4)Glc
# How it was run: as §1
# [12] = target: Gal(b1-3)[Fuc(a1-4)]GlcNAc(b1-3)Gal(b1-4)[Fuc(a1-3)]GlcNAc(b1-6)[Gal(b1-3)[Fuc(a1-4)]GlcNAc(b1-3)]Gal(b1-4)Glc
# How it was run: as §1
# [13] = target: Gal(b1-3)[Fuc(a1-4)]GlcNAc(b1-3)[Fuc(a1-3)[Gal(b1-4)]GlcNAc(b1-6)]Gal(b1-4)Glc
# How it was run: as §1
# [14] = target: Gal(b1-3)[Fuc(a1-4)]GlcNAc(b1-6)GalNAc
# How it was run: as §1
# [15] = target: Gal(b1-3)[GlcNAc(b1-6)]GalNAc
# How it was run: as §1
# [16] = target: Gal(b1-3)[Neu5Ac(a2-6)]GalNAc
# How it was run: as §1
# [17] = target: Gal(b1-3)[Neu5Ac(a2-6)]GalNAc(b1-4)Gal(b1-4)Glc
# How it was run: as §1
# [18] = target: Gal(b1-3)[Neu5Ac(a2-6)]GlcNAc(b1-3)Gal(b1-4)Glc
# How it was run: as §1
# [19] = target: Gal(b1-3)[Neu5Ac(a2-6)]GlcNAc(b1-4)Gal(b1-4)Glc
# How it was run: as §1
# [20] = target: Gal(b1-3)[Neu5Ac(a2-6)]GlcNAc(b1-6)Gal(b1-4)Glc
# How it was run: as §1
# [21] = target: Gal(b1-3)[Neu5Ac(b2-6)]GalNAc
# How it was run: as §1
# Gal(b1-4)Gal = target: Gal(b1-4)Gal
# How it was run: as §1
# [22] = target: Gal(b1-4)GalNAc(a1-3)[Fuc(a1-2)]Gal(b1-4)GlcNAc
# How it was run: as §1
# [23] = target: Gal(b1-4)GalNAc(b1-3)[Fuc(a1-2)]Gal(b1-4)GlcNAc
# How it was run: as §1
# Gal(b1-4)Glc = target: Gal(b1-4)Glc
# How it was run: as §1
# Gal(b1-4)Glc6S = target: Gal(b1-4)Glc6S
# How it was run: as §1
# Gal(b1-4)GlcNAc = target: Gal(b1-4)GlcNAc
# How it was run: as §1
# [24] = target: Gal(b1-4)GlcNAc(a1-6)Gal(b1-4)GlcNAc
# How it was run: as §1
# Gal(b1-4)GlcNAc(b1-2)Man = target: Gal(b1-4)GlcNAc(b1-2)Man
# How it was run: as §1
# [25] = target: Gal(b1-4)GlcNAc(b1-2)Man(a1-3)Man(b1-4)GlcNAc(b1-4)GlcNAc
# How it was run: as §1
# [26] = target: Gal(b1-4)GlcNAc(b1-2)Man(a1-3)[Gal(b1-4)GlcNAc(b1-2)Man(a1-6)]Man(b1-4)GlcNAc(b1-4)GlcNAc
# How it was run: as §1
# [27] = target: Gal(b1-4)GlcNAc(b1-2)Man(a1-3)[Gal(b1-4)GlcNAc(b1-2)Man(a1-6)]Man(b1-4)GlcNAc(b1-4)[Fuc(a1-6)]GlcNAc
# How it was run: as §1
# [28] = target: Gal(b1-4)GlcNAc(b1-2)Man(a1-3)[Gal(b1-4)GlcNAc(b1-2)Man(a1-6)][Gal(b1-4)GlcNAc(b1-4)]Man(b1-4)GlcNAc(b1-4)[Fuc(a1-6)]GlcNAc
# How it was run: as §1
# [29] = target: Gal(b1-4)GlcNAc(b1-2)Man(a1-3)[Gal(b1-4)GlcNAc(b1-2)Man(a1-6)][GlcNAc(b1-4)]Man(b1-4)GlcNAc(b1-4)[Fuc(a1-6)]GlcNAc
# How it was run: as §1
# [30] = target: Gal(b1-4)GlcNAc(b1-2)Man(a1-3)[GlcNAc(b1-2)Man(a1-6)]Man(b1-4)GlcNAc(b1-4)GlcNAc
# How it was run: as §1
# [31] = target: Gal(b1-4)GlcNAc(b1-2)Man(a1-3)[GlcNAc(b1-4)][Gal(b1-4)GlcNAc(b1-2)Man(a1-6)]Man(b1-4)GlcNAc(b1-4)GlcNAc
# How it was run: as §1
# [32] = target: Gal(b1-4)GlcNAc(b1-2)Man(a1-3)[Man(a1-6)]Man(b1-4)GlcNAc(b1-4)GlcNAc
# How it was run: as §1
# [33] = target: Gal(b1-4)GlcNAc(b1-2)Man(a1-6)Man(b1-4)GlcNAc(b1-4)GlcNAc
# How it was run: as §1
# [34] = target: Gal(b1-4)GlcNAc(b1-2)Man(a1-6)[GlcNAc(b1-2)Man(a1-3)]Man(b1-4)GlcNAc(b1-4)GlcNAc
# How it was run: as §1
# [35] = target: Gal(b1-4)GlcNAc(b1-2)Man(a1-6)[GlcNAc(b1-2)Man(a1-3)]Man(b1-4)GlcNAc(b1-4)[Fuc(a1-6)]GlcNAc
# How it was run: as §1
# [36] = target: Gal(b1-4)GlcNAc(b1-2)Man(a1-6)[Man(a1-3)]Man(b1-4)GlcNAc(b1-4)GlcNAc
# How it was run: as §1
# [37] = target: Gal(b1-4)GlcNAc(b1-2)Man(a1-6)[Man(a1-3)]Man(b1-4)GlcNAc(b1-4)[Fuc(a1-6)]GlcNAc
# How it was run: as §1
# [38] = target: Gal(b1-4)GlcNAc(b1-2)[Gal(b1-4)GlcNAc(b1-4)]Man(a1-3)[Fuc(a1-3)[Gal(b1-4)]GlcNAc(b1-2)Man(a1-6)]Man(b1-4)GlcNAc(b1-4)GlcNAc
# How it was run: as §1
# [39] = target: Gal(b1-4)GlcNAc(b1-2)[Gal(b1-4)GlcNAc(b1-4)]Man(a1-3)[Gal(b1-4)GlcNAc(b1-2)Man(a1-6)]Man(b1-4)GlcNAc(b1-4)GlcNAc
# How it was run: as §1
binder,measurement,setting,value
B1,glycan array binding signal (z-score),[1],0.136
same,glycan array binding signal (z-score),Gal(b1-3)GlcNAc6S,-0.17
same,glycan array binding signal (z-score),[2],-0.068
same,glycan array binding signal (z-score),[3],-0.063
same,glycan array binding signal (z-score),[4],1.69
same,glycan array binding signal (z-score),[5],0.15
same,glycan array binding signal (z-score),[6],-0.207
same,glycan array binding signal (z-score),[7],0.451
same,glycan array binding signal (z-score),[8],-0.073
same,glycan array binding signal (z-score),[9],-0.32
same,glycan array binding signal (z-score),[10],-0.037
same,glycan array binding signal (z-score),[11],0.933
same,glycan array binding signal (z-score),[12],-0.32
same,glycan array binding signal (z-score),[13],-0.32
same,glycan array binding signal (z-score),[14],-0.043
same,glycan array binding signal (z-score),[15],-0.176
same,glycan array binding signal (z-score),[16],-0.023
same,glycan array binding signal (z-score),[17],-0.32
same,glycan array binding signal (z-score),[18],-0.32
same,glycan array binding signal (z-score),[19],-0.102
same,glycan array binding signal (z-score),[20],-0.42
same,glycan array binding signal (z-score),[21],-0.021
same,glycan array binding signal (z-score),Gal(b1-4)Gal,-0.219
same,glycan array binding signal (z-score),[22],-0.154
same,glycan array binding signal (z-score),[23],0.157
same,glycan array binding signal (z-score),Gal(b1-4)Glc,-0.243
same,glycan array binding signal (z-score),Gal(b1-4)Glc6S,-0.201
same,glycan array binding signal (z-score),Gal(b1-4)GlcNAc,-0.227
same,glycan array binding signal (z-score),[24],0.005
same,glycan array binding signal (z-score),Gal(b1-4)GlcNAc(b1-2)Man,-0.063
same,glycan array binding signal (z-score),[25],0.071
same,glycan array binding signal (z-score),[26],0.564
same,glycan array binding signal (z-score),[27],-0.287
same,glycan array binding signal (z-score),[28],-0.098
same,glycan array binding signal (z-score),[29],-0.253
same,glycan array binding signal (z-score),[30],-0.167
same,glycan array binding signal (z-score),[31],0.043
same,glycan array binding signal (z-score),[32],-0.055
same,glycan array binding signal (z-score),[33],-0.125
same,glycan array binding signal (z-score),[34],-0.213
same,glycan array binding signal (z-score),[35],-0.031
same,glycan array binding signal (z-score),[36],0.189
same,glycan array binding signal (z-score),[37],4.98
same,glycan array binding signal (z-score),[38],-0.32
same,glycan array binding signal (z-score),[39],-0.208
